Results from patent US12338199B2, “Bis-octahydrophenanthrene carboxamides and protein conjugates thereof” (REGENERON PHARMACEUTICALS, INC., priority 2017, dated 2025).

Molecular target: T1, His9-hMSR1 (human MSR1 extracellular domain) (Homo sapiens, UniProt P21757)
T1 construct: human MSR1 extracellular domain expressed with a N-terminal nonahistidine tag; purchased R&D Systems 2708-MS
T1 sequence (P21757 77-451 limits assumed): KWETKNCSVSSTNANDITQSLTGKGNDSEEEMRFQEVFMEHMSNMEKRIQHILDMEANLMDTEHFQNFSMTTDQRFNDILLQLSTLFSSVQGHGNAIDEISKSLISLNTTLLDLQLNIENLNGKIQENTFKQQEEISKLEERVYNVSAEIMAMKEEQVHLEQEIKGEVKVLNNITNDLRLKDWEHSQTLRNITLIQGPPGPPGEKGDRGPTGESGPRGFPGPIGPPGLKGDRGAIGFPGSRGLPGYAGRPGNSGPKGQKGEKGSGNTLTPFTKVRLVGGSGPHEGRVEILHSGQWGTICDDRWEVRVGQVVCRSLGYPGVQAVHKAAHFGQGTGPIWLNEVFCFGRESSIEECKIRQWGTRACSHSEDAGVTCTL
Experiment: Biacore surface plasmon resonance binding kinetics
Conditions: 25° C.
Method: The MSR1 antibodies disclosed herein were conjugated to various liver X receptor (LXR) payloads. This example describes how equilibrium dissociation constant (KD) values for human MSR1 reagents binding to human anti-MSR1 antibody-drug conjugates and their corresponding unconjugated parental antibodies were determined using a real-time surface plasmon resonance-based Biacore T200 biosensor.
All binding studies were performed in 10 mM HEPES, 300 mM NaCl, 3 mM EDTA, and 0.05% v/v Surfactant Tween-20, pH 7.4 (HBS-ET) running buffer at 25° C. The Biacore CM4 sensor chip surface was first derivatized by amine coupling with the goat anti-human Fcγ specific polyclonal antibody (Jackson ImmunoResearch Laboratories, Cat # BR-1008-39) to capture anti-MSR1 monoclonal antibodies. Binding studies were performed on human MSR1 extracellular domain expressed with a N-terminal nonahistidine tag (His9-hMSR1; R&D Systems, Cat #2708-MS).
The association rate (ka) and dissociation rate (kd) were determined by fitting the real-time binding sensorgrams to a 1:1 binding model with mass transport limitation using Scrubber 2.0c curve-fitting software. Binding dissociation equilibrium constant (KD) and dissociative half-life (t½) were calculated from the kinetic rates as: […]

- kd (* = no dissociation observed, kd fixed at 1.00E−05): 0.000175 s⁻¹
- Kd (calculated from the kinetic rates, read-out: KD (Molar)): 0.833 nM
- ka (His9-hMSR1 binding to captured antibody): 210000 M⁻¹ s⁻¹
B1: H1H27751P-N297Q (antibody, V domains shown)
VH: EVQLVESGGGLVQPGGSLRLSCAASGFTFSNYAMHWVRQAPGKGLEYVSAISSNGGSTYYADSVKGRITISRDNSKNTLYLQMGSLRAEDMAVYYCARGRPYYYYFGMDVWGQGTTVTVSS
VL: [about 100 residues not shown]QFPLNFGGGTKVEIKR
